Source: patent publication US20180028478A1, “ANTIVIRAL COMPOSITIONS DIRECTED AGAINST THE NUCLEOPROTEIN OF INFLUENZA VIRUSES” (priority 2011, published 2018)

System: H1N1 virus (wsn/33)
Format: cell-based, Influenza A H1N1 wsn/33

SMILES | Protection % (5 μM) | Protection % (25 μM)
COc1ccc2cc(C(CC(=O)O)CC(=O)O)ccc2c1 [Naproxen A] | 8 ± 1% | 54 ± 4%
COc1ccc2cc(-c3c(C(=O)O)cccc3C(=O)O)ccc2c1 [Naproxen c0] | 30 ± 3% | 77 ± 5%

Like-named read-outs stand apart in the source and are kept apart here.
